Experimental data published in the supplement of paper PMC4604168 (melanoma cell lines).
The list shows a part of the results. Most values come without repeats; read them as rough.

Experiments:
Assay in all cases: cell count relative to DMSO control; melanoma cells; higher = more viable cells
Settings in all cases: library dose: standard library concentration; 72 h
G361 = system: G361
IPC-298 = system: IPC-298
IST-MEL1 = system: IST-MEL1
LB2518-MEL = system: LB2518-MEL
LOXIMVI = system: LOXIMVI
MEL-HO = system: MEL-HO
MZ2-MEL = system: MZ2-MEL
MeWo = system: MeWo
RPMI7951 = system: RPMI7951
RVH-421 = system: RVH-421
SkMel28 = system: SkMel28
SkMel2 = system: SkMel2
SkMel30 = system: SkMel30
SkMel5 = system: SkMel5
UACC257 = system: UACC257
UACC62 = system: UACC62
WM115 = system: WM115
WM1716 = system: WM1716
WM1745 = system: WM1745
WM3526 = system: WM3526
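Further: cells treated in 1,536-well plates, then fixed and DAPI-stained, with nuclei counted from automated high-throughput microscope images.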

SMILES	cell count (G361)	cell count (IPC-298)	cell count (IST-MEL1)	cell count (LB2518-MEL)	cell count (LOXIMVI)	cell count (MEL-HO)	cell count (MZ2-MEL)	cell count (MeWo)	cell count (RPMI7951)	cell count (RVH-421)	cell count (SkMel28)	cell count (SkMel2)	cell count (SkMel30)	cell count (SkMel5)	cell count (UACC257)	cell count (UACC62)	cell count (WM115)	cell count (WM1716)	cell count (WM1745)	cell count (WM3526)
C[C@@H](Oc1cc(-c2cnn(C3CCNCC3)c2)cnc1N)c1c(Cl)ccc(F)c1Cl [Crizotinib] + CCCS(=O)(=O)Nc1ccc(F)c(C(=O)c2c[nH]c3ncc(Cl)cc23)c1F [PLX4720] (first compound 1 µM, partner dose 0.4 µM)	59.9%	81.4%	89.1%	90.7%	142%	95.9%	81.3%	81.6%	90.8%	64.1%	50.8%	97.4%	109%	84.4%	92.2%	81%	53.7%	61.4%	73.9%	71.5%
C=CCNC1=C2C[C@@H](C)C[C@H](OC)[C@H](O)[C@@H](C)/C=C(\C)[C@H](OC(N)=O)[C@@H](OC)/C=C\C=C(/C)C(=O)NC(=CC1=O)C2=O [Tanespimycin] + COCC[n+]1c2c(n(Cc3cnccn3)c1C)C(=O)c1ccccc1C2=O [YM155] (first compound 0.01 µM, partner dose 0.002 µM)	71.6%	45.5%	42.2%	27.1%	55.3%	82.8%	27.5%	28.1%	38.1%	90.7%	31.5%	40.5%	66.7%	38.4%	26.9%	58.2%	29.7%	56.6%	80.7%	33.4%
CS(=O)(=O)CCNCc1ccc(-c2ccc3ncnc(Nc4ccc(OCc5cccc(F)c5)c(Cl)c4)c3c2)o1 [lapatinib] + C#Cc1cccc(Nc2ncnc3cc(OCCOC)c(OCCOC)cc23)c1 [erlotinib] (first compound 4 µM, partner dose 4 µM)	70.2%	74.4%	103%	79.7%	108%	95.5%	53.7%	67.4%	82.6%	88.2%	80.3%	77.9%	85.7%	68.6%	109%	58.3%	74.6%	104%	72.5%	80%
CN1CCN(c2ccc3nc(-c4c(N)c5c(F)cccc5[nH]c4=O)[nH]c3c2)CC1 [Dovitinib] + Clc1ccc(Nc2nnc(Cc3ccncc3)c3ccccc23)cc1 [vatalanib] (first compound 0.5 µM, partner dose 10 µM)	55.3%	50.8%	58.4%	41.9%	75.3%	55.7%	33%	63.3%	55.1%	66.4%	40.9%	43.6%	61.5%	43.7%	56.9%	60.4%	74.6%	63.8%	33.7%	56.9%
CN1CCN(c2ccc3nc(-c4c(N)c5c(F)cccc5[nH]c4=O)[nH]c3c2)CC1 [Dovitinib] + Cc1nc(Nc2ncc(C(=O)Nc3c(C)cccc3Cl)s2)cc(N2CCN(CCO)CC2)n1 [dasatanib] (first compound 0.5 µM, partner dose 0.02 µM)	64.4%	71.6%	65%	47%	28.2%	66%	36.6%	53.9%	32.1%	83.3%	52.8%	57.9%	89.3%	59.1%	83.9%	61.9%	57%	59%	23.4%	63.6%
CN1CCN(c2ccc3nc(-c4c(N)c5c(F)cccc5[nH]c4=O)[nH]c3c2)CC1 [Dovitinib] + Cc1cc(N2CCOCC2)cc2[nH]c(-c3c(NC[C@@H](O)c4cccc(Cl)c4)cc[nH]c3=O)nc12 [BMS536924] (first compound 0.5 µM, partner dose 1 µM)	39.5%	56.3%	63.9%	59.5%	48%	66%	41.9%	34.9%	61.9%	92.4%	48.4%	38.2%	71.2%	47.5%	79.3%	71.8%	68.4%	79.5%	20.7%	54.3%
C=CCNC1=C2C[C@@H](C)C[C@H](OC)[C@H](O)[C@@H](C)/C=C(\C)[C@H](OC(N)=O)[C@@H](OC)/C=C\C=C(/C)C(=O)NC(=CC1=O)C2=O [Tanespimycin] + Nc1cccc2c1CN(C1CCC(=O)NC1=O)C2=O [lenalidomide] (first compound 0.01 µM, partner dose 5 µM)	78.2%	98.8%	75.3%	80.6%	77.2%	101%	111%	64.3%	19.7%	85%	31.3%	87.5%	89.8%	62.7%	109%	41.7%	30.2%	88.5%	71.1%	68.3%
C=CCNC1=C2C[C@@H](C)C[C@H](OC)[C@H](O)[C@@H](C)/C=C(\C)[C@H](OC(N)=O)[C@@H](OC)/C=C\C=C(/C)C(=O)NC(=CC1=O)C2=O [Tanespimycin] + NC(=O)Nc1cc(-c2cccc(F)c2)sc1C(=O)N[C@H]1CCCNC1 [AZD7762] (first compound 0.01 µM, partner dose 0.1 µM)	65.3%	76.6%	44.7%	39%	65.5%	66.8%	115%	32.9%	14.9%	120%	25.4%	62.9%	80.9%	63.6%	113%	45.5%	18.2%	64.7%	31.9%	38%
CN1CCN(c2ccc3nc(-c4c(N)c5c(F)cccc5[nH]c4=O)[nH]c3c2)CC1 [Dovitinib] + Nc1nc(F)nc2c1ncn2[C@@H]1O[C@H](CO)[C@@H](O)[C@@H]1O [fludarabine] (first compound 0.5 µM, partner dose 1 µM)	52.2%	54.7%	65%	67.3%	93.1%	73.5%	56.6%	57.8%	63%	74.6%	3.05%	2.85%	19.8%	25.7%	36.4%	58.4%	67.9%	71.2%	65.2%	26.3%
CS(=O)(=O)CCNCc1ccc(-c2ccc3ncnc(Nc4ccc(OCc5cccc(F)c5)c(Cl)c4)c3c2)o1 [lapatinib] + NC(=O)Nc1cc(-c2cccc(F)c2)sc1C(=O)N[C@H]1CCCNC1 [AZD7762] (first compound 4 µM, partner dose 0.1 µM)	70.1%	91.5%	82.1%	69.5%	105%	72%	67.8%	85.4%	28.8%	108%	49.7%	88.1%	72.9%	64.4%	103%	68.3%	72.5%	74.7%	62.9%	57.3%
C=CCNC1=C2C[C@@H](C)C[C@H](OC)[C@H](O)[C@@H](C)/C=C(\C)[C@H](OC(N)=O)[C@@H](OC)/C=C\C=C(/C)C(=O)NC(=CC1=O)C2=O [Tanespimycin] + Cn1cncc1[C@@](N)(c1ccc(Cl)cc1)c1ccc2c(c1)c(-c1cccc(Cl)c1)cc(=O)n2C [tipifarnib] (first compound 0.01 µM, partner dose 0.05 µM)	48.8%	85.8%	43.8%	53.6%	82.7%	81.6%	96.1%	58.9%	16.5%	58.1%	37.9%	64.1%	90%	60.4%	110%	66.9%	23.3%	60.8%	61.8%	70.9%
CS(=O)(=O)CCNCc1ccc(-c2ccc3ncnc(Nc4ccc(OCc5cccc(F)c5)c(Cl)c4)c3c2)o1 [lapatinib] + Nc1ccn([C@@H]2O[C@H](CO)[C@@H](O)C2(F)F)c(=O)n1 [gemcitabine] (first compound 4 µM, partner dose 0.002 µM)	43%	45.7%	50.3%	53.1%	51.9%	53.5%	55.6%	39.2%	51.3%	6.55%	87.1%	76.6%	99%	56.6%	92.6%	57.6%	65.7%	60%	54%	68.5%
CNC(=O)c1cc(Oc2ccc(NC(=O)Nc3ccc(Cl)c(C(F)(F)F)c3)cc2)ccn1 [sorafenib] + Nc1ncn([C@H]2C[C@H](O)[C@@H](CO)O2)c(=O)n1 [decitabine] (first compound 2 µM, partner dose 0.5 µM)	75%	67.6%	82.2%	89.3%	150%	80.3%	99.7%	86.4%	76.6%	84.2%	94.8%	90.5%	112%	78.6%	89%	67.3%	113%	87.9%	113%	88.8%
CNC(=O)c1cc(Oc2ccc(NC(=O)Nc3ccc(Cl)c(C(F)(F)F)c3)cc2)ccn1 [sorafenib] + C=C(c1ccc(C(=O)O)cc1)c1cc2c(cc1C)C(C)(C)CCC2(C)C [Bexarotene] (first compound 2 µM, partner dose 10 µM)	60.4%	52%	42.5%	85.2%	130%	52.1%	83.7%	74%	57.1%	63.9%	59.2%	84.1%	89.6%	81.3%	71.2%	100%	128%	103%	85.8%	60.9%
CNC(=O)c1cc(Oc2ccc(NC(=O)Nc3ccc(Cl)c(C(F)(F)F)c3)cc2)ccn1 [sorafenib] + Cn1cncc1[C@@](N)(c1ccc(Cl)cc1)c1ccc2c(c1)c(-c1cccc(Cl)c1)cc(=O)n2C [tipifarnib] (first compound 2 µM, partner dose 0.05 µM)	75.6%	103%	88%	80.4%	133%	107%	111%	85.8%	113%	80.2%	82.6%	79.1%	104%	85.5%	90.5%	59.8%	80.8%	84.9%	89.9%	80.2%
CS(=O)(=O)CCNCc1ccc(-c2ccc3ncnc(Nc4ccc(OCc5cccc(F)c5)c(Cl)c4)c3c2)o1 [lapatinib] + OCCn1cc(-c2cnc3nnn(Cc4ccc5ncccc5c4)c3n2)cn1 [PF04217903] (first compound 4 µM, partner dose 5 µM)	69.9%	97.6%	107%	103%	77%	84.9%	82.4%	72.3%	47.8%	96.9%	80.6%	106%	77.6%	57.3%	87%	80.2%	100%	72.4%	87.4%	85.5%
